Bacterial growth in Mueller-Hinton broth at 37 °C with the drug at the dose given, alone or with nitroxoline. Checkerboards on E. coli BW25113: OD600 at the end of exponential growth as a fraction of no-drug wells. Colistin series: OD595 at 10.75 h as a fraction of the colistin-free well. 1 = full growth, lower = more inhibition. No active / inactive call per well. Checkerboard doses stop near each drug's IC75, and their values pile up at 1, as if capped there. Colistin and gentamicin are mixtures; one drawing stands for each.
Test system: Escherichia coli BW25113
Assay: growth relative to no-drug wells (fraction of no-drug control); higher = more growth, less inhibition
Method: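 8 x 8 checkerboard in cation-adjusted Mueller-Hinton broth at 37 °C; OD600 at the end of exponential growth as a fraction of no-drug wells, two biological replicates.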

CN(C)[C@@H]1C(O)=C(C(N)=O)C(=O)[C@@]2(O)C(O)=C3C(=O)c4c(O)cccc4[C@@](C)(O)[C@H]3C[C@@H]12 [Tetracycline] + Oc1ccc([N+](=O)[O-])c2cccnc12 [nitroxoline]
growth
Conditions | nitroxoline concentration 0.136 µg/ml | nitroxoline concentration 0.255 µg/ml | nitroxoline concentration 0.374 µg/ml | nitroxoline concentration 0.493 µg/ml | nitroxoline concentration 0.612 µg/ml | nitroxoline concentration 0.731 µg/ml | nitroxoline concentration 0.85 µg/ml
0.0562 µg/ml | 1 | 0.822 | 0.663 | 0.38 | 0.465 | 0.388 | 0.335
0.0975 µg/ml | 0.8777 | 0.707 | 0.605 | 0.465 | 0.465 | 0.367 | 0.325
0.1125 µg/ml | 0.756 | 0.649 | 0.561 | 0.498 | 0.39 | 0.338 | 0.306
0.195 µg/ml | 0.611 | 0.5782 | 0.494 | 0.306 | 0.24 | 0.169 | 0.164
0.225 µg/ml | 0.529 | 0.525 | 0.457 | 0.351 | 0.251 | 0.19 | 0.137
0.39 µg/ml | 0.269 | 0.253 | 0.21 | 0.132 | 0.0429 | 0.0425 | 0.0169
0.45 µg/ml | 0.103 | 0.0757 | 0.047 | 0.0252 | 0 | 0.000219 | 0.0142

CO[C@H]1/C=C/O[C@@]2(C)Oc3c(C)c(O)c4c(O)c(c(/C=N/N5CCN(C)CC5)c(O)c4c3C2=O)NC(=O)/C(C)=C\C=C\[C@H](C)[C@H](O)[C@@H](C)[C@@H](O)[C@@H](C)[C@H](OC(C)=O)[C@@H]1C [Rifampicin]
nitroxoline concentration 0 µg/ml
Conditions | growth
0.7185 µg/ml | 0.94
1.3487 µg/ml | 0.831
1.979 µg/ml | 0.7899
2.6092 µg/ml | 0.757
3.2395 µg/ml | 0.7464
3.8697 µg/ml | 0.66
4.5 µg/ml | 0.72

C[C@@H](O)[C@H]1C(=O)N2C(C(=O)O)=C(S[C@@H]3CN[C@H](C(=O)Nc4cccc(C(=O)O)c4)C3)[C@H](C)[C@H]12 [Ertapenem]
nitroxoline concentration 0 µg/ml
Conditions | growth
0.001 µg/ml | 0.813
0.0018 µg/ml | 0.731
0.002 µg/ml | 0.774
0.0035 µg/ml | 0.6516
0.004 µg/ml | 0.596
0.007 µg/ml | 0.246
0.008 µg/ml | 0.104

NCC[C@H](O)C(=O)N[C@@H]1C[C@H](N)[C@@H](O[C@H]2O[C@H](CN)[C@@H](O)[C@H](O)[C@H]2O)[C@H](O)[C@H]1O[C@H]1O[C@H](CO)[C@@H](O)[C@H](N)[C@H]1O [Amikacin] + Oc1ccc([N+](=O)[O-])c2cccnc12 [nitroxoline]
growth
Conditions | nitroxoline concentration 0.136 µg/ml | nitroxoline concentration 0.255 µg/ml | nitroxoline concentration 0.374 µg/ml | nitroxoline concentration 0.493 µg/ml | nitroxoline concentration 0.612 µg/ml | nitroxoline concentration 0.731 µg/ml | nitroxoline concentration 0.85 µg/ml
0.025 µg/ml | 1 | 1 | 0.872 | 0.723 | 0.641 | 0.528 | 0.476
0.043 µg/ml | 1 | 1 | 0.946 | 0.724 | 0.609 | 0.517 | 0.472
0.05 µg/ml | 1 | 0.986 | 1 | 0.7729 | 0.623 | 0.531 | 0.508
0.086 µg/ml | 1 | 0.9955 | 0.955 | 0.758 | 0.681 | 0.531 | 0.473
0.1 µg/ml | 0.9805 | 1 | 0.947 | 0.827 | 0.672 | 0.554 | 0.5249
0.172 µg/ml | 0.7878 | 0.796 | 0.763 | 0.732 | 0.584 | 0.496 | 0.434
0.2 µg/ml | 0.759 | 0.76 | 0.686 | 0.504 | 0.519 | 0.427 | 0.439

C[C@@H](O)[C@H]1C(=O)N2C(C(=O)O)=C(S[C@@H]3CN[C@H](C(=O)Nc4cccc(C(=O)O)c4)C3)[C@H](C)[C@H]12 [Ertapenem] + Oc1ccc([N+](=O)[O-])c2cccnc12 [nitroxoline]
growth
Conditions | nitroxoline concentration 0.136 µg/ml | nitroxoline concentration 0.255 µg/ml | nitroxoline concentration 0.374 µg/ml | nitroxoline concentration 0.493 µg/ml | nitroxoline concentration 0.612 µg/ml | nitroxoline concentration 0.731 µg/ml | nitroxoline concentration 0.85 µg/ml
0.001 µg/ml | 1 | 1 | 0.777 | 0.601 | 0.46 | 0.408 | 0.312
0.0018 µg/ml | 0.968 | 0.938 | 0.756 | 0.539 | 0.434 | 0.376 | 0.328
0.002 µg/ml | 0.974 | 1 | 0.689 | 0.5 | 0.422 | 0.413 | 0.309
0.0035 µg/ml | 0.734 | 0.669 | 0.579 | 0.484 | 0.459 | 0.427 | 0.317
0.004 µg/ml | 0.749 | 0.797 | 0.699 | 0.512 | 0.406 | 0.382 | 0.337
0.007 µg/ml | 0.424 | 0.529 | 0.475 | 0.34 | 0.317 | 0.318 | 0.262
0.008 µg/ml | 0.305 | 0.425 | 0.358 | 0.245 | 0.3299 | 0.2893 | 0.23

CC(C)(O/N=C(\C(=O)N[C@@H]1C(=O)N2C(C(=O)[O-])=C(C[n+]3ccccc3)CS[C@H]12)c1csc(N)n1)C(=O)O [Ceftazidime]
nitroxoline concentration 0 µg/ml
Conditions | growth
0.0094 µg/ml | 0.983
0.016 µg/ml | 0.985
0.0187 µg/ml | 0.9932
0.032 µg/ml | 1
0.0375 µg/ml | 0.9988
0.064 µg/ml | 0.943
0.075 µg/ml | 0.939
